Assay results as given in patent publication EP4732851A9, “LINKER, ANTIBODY-DRUG CONJUGATE, AND PREPARATION METHOD THEREFOR” (Fudan University, priority 2024, dated 2025).

Key:
[1] = Toxicokinetic (TK) detection in cynomolgus monkeys; type: in vivo; settings: cynomolgus monkeys
Protocol: (§1) Serum Sample Collection: HER2-NDC 1 mg/kg 1-G07-GGFG-Dxd and 1 mg/kg 1-G07-LP5 were administered via tail vein injection to 8-week-old female Balb/c mice. Approximately 100 µL of blood was collected from the orbit at time points 0 min, 5 min, 30 min, 4 h, 8 h, 24 h, 48 h, 72 h, 96 h, 120 h, 168 h, and 192 h post-adminsteration. The blood was left at room temperature for 30 min, then placed at 4°C for 3-4 h, and centrifuged at 1500 rpm for 15 min to collect the upper serum. ELISA detection of antibody conjugate concentration: The anti-Dxd antibody (Abmax Biotechnology, Cat#05-0191-L, whose affinity for LP5 is similar to that for Dxd) was diluted to 2.5 µg/mL with coating buffer and coated onto ELISA plates, 100 µL/well. The plates were sealed and incubated at 4°C overnight. Unbound antigen was removed, and blocking buffer (3% BSA in PBS) was added, 200 µL/well, for blocking at room temperature for 2 h. After the blocking solution was removed, the 3-fold serially diluted test serum samples and 3-fold serially diluted standard samples (starting from 333.33 ng/mL) were added, 100 µL/well, and incubated at room temperature for 2 h. Unbound antibodies were removed, and HRP-labeled secondary antibody diluted 1:8000 was added, 100 µL/well, and incubated at room temperature for 1 h. After removing unbound secondary antibody, TMB substrate solution was added, 150 µL/well, for color development at room temperature in the dark for about 5 min. ELISA stop solution was added, 50 µL/well, to terminate the color reaction. The OD value at 450 nm was measured, and the drug concentration in the serum was analyzed and calculated. The drug concentrations in the serum at different time points were input into Phoenix software, and a non-compartmental model was used to analyze the drug concentration-time related parameters.
K2477 experiment: 2 cynomolgus monkeys (one male and one female) were administered a single intravenous infusion of 10 mg/kg FD40-GGFG-Dxd (designated as the 10 mg/kg dose group). On day 22, a second intravenous infusion of 30 mg/kg FD40-GGFG-Dxd was administered (designated as the 30 mg/kg dose group). Blood was collected from the forelimb or hindlimb veins before each dose and at 5 min, 1 h, 8 h, 24 h, 48 h, 72 h, 96 h, 120 h, 168 h, 240 h, 336 h, and 504 h after each dose to prepare serum. Pharmacokinetic detection was performed using the method described in Example 14.
K2504 experiment: 2 cynomolgus monkeys (one male and one female) were administered a single intravenous infusion of 10 mg/kg FD40-LP5 (designated as the 10 mg/kg dose group). On day 22, a second intravenous infusion of 30 mg/kg FD40-LP5 was administered (designated as the 30 mg/kg dose group). […]

[2] = Pharmacokinetic detection in mice (ELISA of conjugate in serum); type: in vivo, Balb/c mice; settings: mice, 1 mg/kg intravenous administration
Protocol: as §1
Similarly, TF-NDC 1 mg/kg FD40-GGFG-Dxd and 1 mg/kg FD40-LP5 were administered via tail vein injection to 8-week-old female Balb/c mice. Approximately 100 µL of blood was collected from the orbit at time points 0 min, 5 min, 30 min, 4 h, 8 h, 24 h, 48 h, 72 h, 96 h, 120 h, 168 h, and 192 h post-administeration, processed for detection and analysis.

NCI-H1373 cells = experiment: Lung cancer NCI-H1373 in vivo model; design: species or system Balb/c nude mice; settings: 10 mg/kg; for tumor growth: once weekly for 2 doses (days 8 and 15), compared to hIgG1-MMAE control group; for P (therapeutic effect): NCI-H1373 model
Protocol: Lung cancer NCI-H1373 in vivo model: 5x10^6 NCI-H1373 cells were inoculated onto the backs of 6-week-old female Balb/c nude mice. On day 8, when the tumor volume reached ~200 mm^3, the animals were randomly grouped, with 10 tumors per group. Dosing was performed once weekly for a total of 2 doses (on days 8 and 15).

HPAF-II cells = experiment: Pancreatic cancer HPAF-II in vivo model (TF-Topo1 inhibitor NDC); design: species or system Balb/c nude mice; settings: 10 mg/kg single dose on day 7; for tumor growth: compared to hIgG1-MMAE control group
Description: Pancreatic cancer HPAF-II in vivo model: 5x10^6 HPAF-II cells were inoculated onto the backs of 6-week-old female Balb/c nude mice. On day 7, when the tumor volume reached ~150 mm^3, the animals were randomly grouped for treatment, with 10 tumors per group, receiving a single dose.
Similar pancreatic cancer HPAF-II in vivo model: on day 6, when the tumor volume reached ~200 mm^3, the animals were randomly grouped for treatment, with 10 tumors per group, receiving a single dose.

B1: FD40-GGFG-Dxd: TF-NDC of FD40 prepared with the known linker (GGFG-Dxd), DAR=4.0 (conjugate)
chain: QVQLVESGGGLVKPGGSLRLSCTASETISSTYIMGWHRQAPGKGRELVAVISGDGVTHYADFVKGRFTISRDNAKNTVYLQMNFLRAEDTAVYYCYAAGRWNHWGQGTMVTVSS[letters of human IgG1 Fc with C220S (EU numbers) not shown]
mean AUC0-t ([1]; 10 mg/kg intravenous administration): 4725.19 µg·h/mL
mean AUC0-t ([1]; 30 mg/kg intravenous administration (second dose on day 22)): 14822.3 µg·h/mL
mean AUC0-t [2]: 272.88 µg·h/mL
mean Cmax [2]: 16500 ng/mL
mean MRTlast [2]: 34.92 h
mean T1/2 [2]: 45.56 h
tumor growth (NCI-H1373 cells): significantly inhibited tumor growth
P (therapeutic effect) (NCI-H1373 cells; once weekly for 2 doses): 0.06

B2: FD40-LP1 (conjugate)
chain: QVQLVESGGGLVKPGGSLRLSCTASETISSTYIMGWHRQAPGKGRELVAVISGDGVTHYADFVKGRFTISRDNAKNTVYLQMNFLRAEDTAVYYCYAAGRWNHWGQGTMVTVSS[letters of human IgG1 Fc with C220S (EU numbers) not shown]
tumor growth (HPAF-II cells): significantly inhibited tumor growth
tumor growth (NCI-H1373 cells): significantly inhibited tumor growth
P (therapeutic effect) (NCI-H1373 cells; once weekly for 2 doses): < 0.001

B3: FD40-LP6 (conjugate)
chain: QVQLVESGGGLVKPGGSLRLSCTASETISSTYIMGWHRQAPGKGRELVAVISGDGVTHYADFVKGRFTISRDNAKNTVYLQMNFLRAEDTAVYYCYAAGRWNHWGQGTMVTVSS[letters of human IgG1 Fc with C220S (EU numbers) not shown]
therapeutic effect compared with FD40-LP1 (HPAF-II cells): superior to that of FD40-LP1
tumor growth (HPAF-II cells): significantly inhibited tumor growth
tumor suppression on day 32 (17 days after the last dose) (NCI-H1373 cells; once weekly for 2 doses): maintained excellent tumor suppression effects
tumor growth (NCI-H1373 cells): significantly inhibited tumor growth
